{"source": "PubChem BioAssay AID1347120", "about": "(National Center for Advancing Translational Sciences (NCATS), 2019)", "note": "Out of some 390,000 compounds screened, about 930 (0.24%) were called active. The inconclusive results got no clear call from the source; some entries with a clear call stand among them for comparison. The call rests on the fitted dose curve; in most records, active means well fitted activation curve with a large enough effect; inconclusive means small, poorly fitted or top-dose-only effect; inactive means no such curve, though single readings can be large or run the other way. Where the call is inconclusive, the potency comes from a doubtful curve fit. Potency means the concentration at half of the fitted maximal effect; tags describe the fitted curve by direction and shape."}
{"assay": "qHTS for Suppressors of FUS Proteinopathy: Primary screen using FUS-linked yeast assay; further: nearly all actives have a fitted effect of over 55% in size;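 on growth rescue (activation): plate controls were DMSO vehicle for no effect and reference control for full effect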", "settings": "S. cerevisiae FUS-expressing, OD600, 24 h; Potency: growth rescue; growth rescue (activation): at 76.6 µM (top of the series)", "procedure,_shortened": "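Read-out: OD at 600 nm after 24hr at 30C, reporting rescue of FUS-induced yeast toxicity. Cells at OD 0.005 in galactose (2%) minimal medium; compounds tested in a dilution series; CP55940 titration from 92uM final as control.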"}
{"smiles": "COc1ccc(C2=NN(C(=O)CSc3nc4ccccc4s3)C(c3ccc(OC)cc3)C2)cc1", "note": "(centres undefined)", "Potency": "inconclusive: 10 µM [activator, partial curve, poor fit]"}
{"smiles": "CCCCN1C(=O)c2ccc(C(=O)N(C)CC(=O)Nc3ccc(OCC)c(OCC)c3)cc2C1=O", "Potency": "inconclusive: 28.2 µM [activator, partial curve, poor fit]"}
{"smiles": "CC(O)CNc1nc2sc3c(c2c(=O)n1CCc1ccccc1)CCCCC3", "note": "(centres undefined)", "Potency": "inconclusive: 39.8 µM [activator, partial curve, poor fit]"}
{"smiles": "Cc1ccc(-c2cc(C(=O)NNC(=O)c3csc(N4CCOCC4)n3)c3ccccc3n2)cc1", "Potency": "inconclusive: 35.5 µM [activator, single point]"}
{"smiles": "CN(c1ccc(-c2csc(NC(=O)C3CC(=O)N(Cc4ccco4)C3)n2)cc1)S(C)(=O)=O", "note": "(centres undefined)", "Potency": "inconclusive: 28.2 µM [activator, single point]"}
{"smiles": "CC(C)c1ccc(NC2CCCN(C(=O)CCN3Cc4ccccc4C3=O)C2)cc1", "note": "(centres undefined)", "growth rescue (activation)": "inactive: 30.1%"}
{"smiles": "CCc1cccc(NC(=O)C2CCCN(c3ncnc4onc(-c5ccc(F)cc5)c34)C2)c1", "note": "(centres undefined)", "Potency": "inconclusive: 22.4 µM [activator, partial curve]"}
{"smiles": "O=C(Nc1ncc2c(n1)-c1ccccc1OC2)c1ccc(Cl)cc1Cl", "growth rescue (activation)": "inactive: -8.21%"}
{"smiles": "C=CCc1cccc(CNc2ccc(Br)cc2)c1O", "growth rescue (activation)": "inactive: -1.58%"}
{"smiles": "COCCn1c(C)cc(C(=O)CSc2nc3ccccc3c(=O)n2C(C)COC)c1C", "note": "(centres undefined)", "Potency": "inconclusive: 22.4 µM [activator, partial curve]"}
{"smiles": "CCOC(=O)[C@@]12CCCC=C1N(CCc1ccc(Cl)cc1)C(=O)[C@H]2CC(=O)NCc1ccccc1", "Potency": "inconclusive: 28.2 µM [activator, single point]"}
{"smiles": "Cc1ccc(Nc2nc3ccccc3s2)c(C)c1", "growth rescue (activation)": "inactive: 19.8%"}
{"smiles": "CCc1sc(C(=O)Nc2nc(-c3ccccn3)cs2)cc1C", "Potency": "inconclusive: 15.8 µM [activator, partial curve, poor fit]"}
{"smiles": "O=C(NC1CCCCC1)C(c1ccnc2ccccc12)n1c(=O)c(-c2ccco2)nc2ccccc21", "note": "(centres undefined)", "Potency": "inconclusive: 6.31 µM [activator, partial curve]"}
{"smiles": "O=C1[C@H](Cc2ccccc2)NCC=CC[C@H](c2ccc(Cl)cc2)N1Cc1ccccc1", "Potency": "inconclusive: 44.7 µM [activator, partial curve, poor fit]"}
{"smiles": "CCOC(=O)c1ccc(NC(=O)C2CCN(S(=O)(=O)c3c(C)nn(C)c3C)CC2)cc1", "Potency": "inconclusive: 15.8 µM [activator, partial curve]"}
{"smiles": "OCc1cccc(-c2cnc3c(Nc4cccc(OC(F)(F)C(F)F)c4)nccn23)c1", "Potency": "inconclusive: 31.6 µM [activator, single point]"}
{"smiles": "CCCCOC(=O)c1ccc(NC(=O)CN2C(=O)NC3(CCCCCC3)C2=O)cc1", "Potency": "inconclusive: 31.6 µM [activator, single point]"}
{"smiles": "COc1ccc(C(C(=O)N(C)C2CCCC2)N(Cc2ccc(F)cc2)C(=O)c2ccc3ccccc3c2)cc1OC", "note": "(centres undefined)", "Potency": "inconclusive: 28.2 µM [activator, partial curve, poor fit]"}
{"smiles": "COc1ccc(N2CCN(C(=O)CSc3ncccc3-c3nc4ccccc4[nH]3)CC2)cc1", "Potency": "inconclusive: 14.1 µM [activator, partial curve, poor fit]"}
{"smiles": "COC(=O)C1=CN(c2ccc(F)cc2)C(N)=C(C#N)C1c1ccc(-c2ccccc2)cc1", "note": "(centres undefined)", "Potency": "inconclusive: 31.6 µM [activator, single point]"}
{"smiles": "Cc1ccc2nc(-c3ccc(NS(C)(=O)=O)cc3)cc(-c3ccccc3)c2c1", "Potency": "inconclusive: 17.8 µM [activator, partial curve, poor fit]"}
{"smiles": "Cc1ccc(C2/C(=C(/O)c3ccc(Cl)cc3)C(=O)C(=O)N2CC2CCCO2)o1", "note": "(centres undefined)", "growth rescue (activation)": "inactive: -24.8%"}
{"smiles": "COC(=O)c1sccc1NC(=O)c1cccnc1", "growth rescue (activation)": "inconclusive: 63.9% [activator]"}
{"smiles": "COC(=O)[C@]1(CC(C)C)N[C@H](c2ccc(SC3CCCCC3)c(OC)c2)[C@@H]2C(=O)N(C)C(=O)[C@@H]21", "Potency": "inconclusive: 12.6 µM [activator, partial curve, poor fit]"}
{"smiles": "CCc1ccc(OCC(=O)N(Cc2ccc(C(C)C)cc2)C2CCS(=O)(=O)C2)cc1", "note": "(centres undefined)", "Potency": "inconclusive: 28.2 µM [activator, partial curve, poor fit]"}
{"smiles": "O=C(c1cccc(S(=O)(=O)N2CCCC2)c1)c1nnc(-c2ccncc2)o1", "Potency": "inconclusive: 35.5 µM [activator, single point]"}
{"smiles": "CC(Oc1cccnc1[N+](=O)[O-])C(=O)Nc1cccc(Cl)c1", "note": "(centres undefined)", "growth rescue (activation)": "inactive: -5.52%"}
{"smiles": "CCc1cccc(NC(=O)C2CCN(S(=O)(=O)c3ccc4c(c3)CC(C)N4C(C)=O)CC2)c1", "note": "(centres undefined)", "Potency": "inconclusive: 50.1 µM [activator, single point]"}
{"smiles": "Cc1ccc2oc(-c3ccc(C)c(NC(=O)/C=C/c4ccco4)c3)nc2c1", "growth rescue (activation)": "inactive: 11.7%"}
{"smiles": "O=C1CSC2(C(=O)N(Cc3cccc(C(F)(F)F)c3)c3ccccc32)N1c1ccc(F)c(F)c1", "note": "(centres undefined)", "Potency": "inconclusive: 44.7 µM [activator, single point]"}
{"smiles": "Cc1ccc2c(=O)n3c(nc2c1)C(Cc1ccccc1)NC(=O)c1cc2ccccc2cc1-3", "note": "(centres undefined)", "Potency": "inconclusive: 25.1 µM [activator, single point]"}
{"smiles": "O=C(NCc1ccccc1)OCCN1C(=O)CCC12CCC(c1ccc(Cl)cc1)CC2", "note": "(centres undefined)", "Potency": "inconclusive: 20 µM [activator, single point]"}
{"smiles": "CC(=O)C1=C(O)C(=O)N(c2cccc(Br)c2)C1c1ccc(Br)cc1", "note": "(centres undefined)", "Potency": "inconclusive: 25.1 µM [activator, single point]"}
{"smiles": "CC(C)Cn1cc(NC(=O)N2CCN(c3cccc(C(F)(F)F)c3)CC2)c2ccccc2c1=O", "Potency": "inconclusive: 50.1 µM [activator, single point]"}
{"smiles": "O=C(CSc1nnc(-c2ccco2)n1-c1ccc(Cl)cc1)Nc1ccc(S(=O)(=O)Nc2nccs2)cc1", "Potency": "active: 25.1 µM"}
{"smiles": "CCOC(=O)CSc1nc2cc3c(cc2cc1C)OCO3", "growth rescue (activation)": "inactive: -4.59%"}
{"smiles": "CCCCSCCCNC(=O)CS(=O)Cc1nc(-c2cccc(C)c2)oc1C", "note": "(centres undefined)", "growth rescue (activation)": "inactive: 27.7%"}
{"smiles": "Cc1cc(/C=C2/NC(=O)NC2=O)c(C)n1-c1ccc(N2CCOCC2)cc1", "Potency": "inconclusive: 35.5 µM [activator, single point]"}
